{"source": "ChEMBL document CHEMBL1201862", "about": "“PubChem BioAssay data set” (2004)", "note": "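Protocol summary: plate cells (96-well), add compound at 5 concentrations, incubate 48 h, interpolate endpoints linearly. GI50 marks 50% less growth.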 The source made the active and inactive calls. Rule as the data show it: active = GI50 up to about 1.1 µM and inactive = higher."}
{"tested_on": "NCI-H322M", "test": "NCI anticancer screen, dose series, 48 h"}
{"smiles": "CC1=NN(C(=O)CC(=O)Nc2cccc(Cl)c2)C(=O)C1/N=N/c1ccc(C(=O)O)cc1", "note": "(stereo not drawn)", "GI50": "inactive: > 100 µM"}
{"smiles": "CCOC(=O)c1nc2ccc(Cl)cc2c2c1CCO2", "GI50": "inactive: > 100 µM"}
{"smiles": "CC(=O)O[C@H]1C[C@H](O[C@H]2[C@@H](O)C[C@H](O[C@H]3[C@@H](O)C[C@H](O[C@H]4CC[C@@]5(C)[C@H](CC[C@@H]6[C@@H]5CC[C@]5(C)[C@@H](C7=CC(=O)OC7)CC[C@]65O)C4)O[C@@H]3C)O[C@@H]2C)O[C@H](C)[C@H]1O[C@@H]1O[C@H](CO)[C@@H](O)[C@H](O)[C@H]1O", "GI50": "active: 0.016 µM"}
{"smiles": "N#CC(C/C=C/c1ccccc1)NNC(=O)c1c(Cl)c(Cl)c(Cl)c(Cl)c1-c1nc2cc(C(=O)c3ccccc3)ccc2[nH]1", "note": "(stereo not drawn)", "GI50": "inactive: 27.2 µM"}
{"smiles": "COC(=O)[C@@H](Nc1ccccc1)[C@@]1(C(=O)OC)SC12c1ccccc1-c1ccccc12", "GI50": "inactive: > 100 µM"}
{"smiles": "C=C1C(C2(C)C(OC(C)=O)CC(=O)OC(C)(COC(C)=O)C2CC(=O)OC)C(OC=O)C(OC(=O)C(O)C(C)CC)C2(C)C(c3ccoc3)CC(=O)C12O", "note": "(stereo not drawn)", "GI50": "inactive: 9.53 µM"}
{"smiles": "CCOC(=O)/C(=C\\c1ccc(O)c(OC)c1)C(=O)c1ccccc1", "GI50": "inactive: 22.5 µM"}
{"smiles": "CN(C)/N=C1/CCC(C(F)(F)F)(C(F)(F)F)O1", "GI50": "inactive: 38.8 µM"}
{"smiles": "CSCSCC(CO)NC(=O)/C=C/c1c(C)nc(O)nc1O", "note": "(stereo not drawn)", "GI50": "inactive: 20.2 µM"}
{"smiles": "COC1(OC)CC(CO)(CNc2cc(Cl)nc(N)n2)C1", "GI50": "inactive: > 100 µM"}
{"smiles": "CC1=CC(C)(C)N=C2SC(c3ccc(N)cc3)=NN12", "GI50": "inactive: > 100 µM"}
{"smiles": "CC(=O)O/C(=C1\\C[C@H]2[C@@H]3CC=C4C[C@@H](OC(C)=O)CC[C@]4(C)[C@H]3CC[C@]2(C)C1=O)C(F)(F)F", "GI50": "inactive: 17.8 µM"}
{"smiles": "O=S1(=O)c2ccccc2Oc2ccc(C(/C=N/O)=N/O)cc21", "GI50": "inactive: 11 µM"}
{"smiles": "O=c1c2ccccc2[nH]c2cc(O)cc(O)c12", "GI50": "inactive: > 100 µM"}
{"smiles": "CCN(CC)CCNC(=O)c1ccc([N+](=O)[O-])cc1OC", "GI50": "inactive: > 100 µM"}
{"smiles": "CCN(CC)c1ccc2cc(C(=O)NCc3ccccc3)c(=N)oc2c1", "GI50": "inactive: > 100 µM"}
{"smiles": "O=C(CNc1ccc([N+](=O)[O-])cc1)Nn1c(-c2ccccc2)nc2ccccc2c1=O", "GI50": "inactive: 15.6 µM"}
{"smiles": "CCCCOC(=O)NC(=O)c1cn(C2CCCCC2)c(=O)[nH]c1=O", "GI50": "inactive: 19.3 µM"}
{"smiles": "C=C(Br)CN(C)CC(=C)Br", "GI50": "inactive: > 100 µM"}
{"smiles": "Cn1c(=O)nc2n(-c3ccc(F)c(F)c3)c3ccccc3nc-2c1=O", "GI50": "inactive: 19.1 µM"}
{"smiles": "O=C(Cc1nc(-c2ccccc2)cc(=O)n1-c1ccccc1Cl)c1ccncc1", "GI50": "inactive: > 100 µM"}
{"smiles": "Cc1ccc(/N=N/c2c(O)ccc3cc(S(=O)(=O)O)ccc23)c(C)c1", "GI50": "inactive: > 100 µM"}
{"smiles": "Cc1ccc(OCC2OC(n3cnc4c(Cl)nc(Nc5cc(Cl)cc(Cl)c5)nc43)CC2Oc2ccc(C)cc2)cc1", "note": "(stereo not drawn)", "GI50": "inactive: > 100 µM"}
{"smiles": "CC1(C)CN(c2ccccc2)C(=O)C1OC(=O)[C@@]1(C)C[C@@H]2C=C[C@H]1C2", "note": "(stereo partly drawn)", "GI50": "inactive: 35.1 µM"}
{"smiles": "CCOC(=O)Cn1c2ccccc2c(=O)c2cc(C)c(C)c(C#N)c21", "GI50": "inactive: > 100 µM"}
{"smiles": "Cc1cc(C)c(N[S+]([O-])c2ccc(Cl)cc2)c(C)c1", "note": "(stereo not drawn)", "GI50": "inactive: > 100 µM"}
{"smiles": "C=C1CCC2C(C)(CO)C(O)CCC2(C)C1C/C=C1\\C(=O)OCC1O", "note": "(stereo not drawn)", "GI50": "inactive: 29 µM"}
{"smiles": "CC[C@]1(Cc2ccc(OC)c(OC)c2)[C@@H]2C[C@@H](C(=O)OC)ON2O[C@H](OC2CCCC2(c2ccccc2)c2ccccc2)[C@@H]1OC(C)=O", "note": "(stereo partly drawn)", "GI50": "inactive: > 100 µM"}
{"smiles": "CC1(CCCO)CCCCCC(C)(CCCO)C1=O", "note": "(stereo not drawn)", "GI50": "inactive: > 100 µM"}
{"smiles": "CC(=O)O[C@H]1C(=O)[C@@]2(C)C(C(OC(=O)c3ccccc3)[C@]3(O)C[C@H](OC(=O)C(OC(=O)CCCC(=O)NCCCN(C)C)C(NC(=O)c4ccccc4)c4ccccc4)C(C)=C1C3(C)C)C1(OC(C)=O)COC1C[C@@H]2O", "note": "(stereo partly drawn)", "GI50": "active: 0.0115 µM"}
{"smiles": "CCN(CC)Cc1ccc(Nc2c3ccccc3nc3ccccc23)cc1", "GI50": "inactive: 3.45 µM"}
{"smiles": "C[C@@H](O)CCC(=O)c1ccoc1", "GI50": "inactive: > 75.7 µM"}
{"smiles": "O=C(Cn1c(C(=O)/C=C/c2ccco2)nc2ccccc21)c1ccc(Cl)cc1", "GI50": "inactive: 27.3 µM"}
{"smiles": "NCCCCNCCCNC(=O)c1nc(-c2nc(CCN)sc2Cl)sc1Cl", "GI50": "inactive: > 100 µM"}
{"smiles": "CCCCc1c2c(nc3c1CCc1cc4cc5c(nc4nc1-3)-c1nc3c(c(CCCC)c1CC5)CCCC3)CCCC2", "GI50": "inactive: 45.4 µM"}
{"smiles": "COC(=O)C(/C(=N/NC(N)=O)C(=O)Nc1c(C)cccc1C(C)(C)C)c1nc2ccc(Cl)cc2nc1O", "note": "(stereo not drawn)", "GI50": "inactive: > 100 µM"}
{"smiles": "CC(NC(=O)c1c(O)[nH]c(=S)[nH]c1=O)c1ccc([N+](=O)[O-])cc1", "note": "(stereo not drawn)", "GI50": "inactive: 57 µM"}
{"smiles": "Cc1cc(NS(=O)(=O)c2ccc(/N=[N+](\\[O-])c3ccc(S(=O)(=O)Nc4cc(C)on4)cc3)cc2)no1", "GI50": "inactive: > 100 µM"}
{"smiles": "CN(C)CCCc1c[nH]c2ccccc12", "GI50": "inactive: > 100 µM"}
{"smiles": "CN(C)CCSCCO", "GI50": "inactive: > 100 µM"}
{"smiles": "NC(=O)c1ncn2c1NC(=O)CC2", "GI50": "inactive: > 100 µM"}
{"smiles": "CC1(C)O[C@@H]2[C@@H](COC(=O)c3ccccc3)C[C@@H](C#N)[C@@H]2O1", "GI50": "inactive: > 100 µM"}
{"smiles": "O=C1c2ccccc2N2OC3C4CCC(C4)C3C12c1ccccc1", "note": "(stereo not drawn)", "GI50": "inactive: > 100 µM"}
